# Measurements taken from PubChem BioAssay AID463173 (ICCB-Longwood Screening Facility, Harvard Medical School, 2010).
# About 1,700 (3.3%) of roughly 52,000 compounds were called active. Cut-off read from the data, not from the text of the source: active = survival mostly below about 52% (no sharp cut-off); inactive = mostly above about 56%. The list shows a part of the results.
# Tested on: Wild type
# Assay: S. aureus survival, RN4220 and DeltatarO strains – OD600, teichoic acid synthesis inhibitors, primary screen (AID 463173)
# Conditions: S. aureus RN4220 wild type/DeltatarO growth, OD600, 18 h, stronger effect = lower value, screened at 18.75 µg/mL (by protocol)
row,SMILES,survival
1,CC1Cc2cc(S(=O)(=O)CCC(=O)Nc3cccc(F)c3)ccc2N1C(=O)C1CC1 (configuration not stated),inactive: 70%
2,O=C(Cn1nnc(-c2ccc(C(F)(F)F)cc2)n1)NCCc1ccccc1,inactive: 90%
3,Cc1cc(C)cc(NS(=O)(=O)c2cc3[nH]c(=O)c(=O)[nH]c3cc2C)c1,inactive: 72%
4,O=C(Cn1ncn2c(cc3cc(F)ccc32)c1=O)NC1CCCCC1,inactive: 81%
5,COC(=O)c1ccccc1NC(=O)c1cc2ccccn2n1,inactive: 72%
6,O=C(O)C1C2C3C=CC(C3)C12 (configuration not stated),inactive: 109%
7,Cc1ccc(NC(=O)CN(C)S(=O)(=O)c2cccc3cccnc23)c(C)c1,inactive: 75%
8,Cc1cccc(OCCn2c(SCC(N)=O)nc3ccccc32)c1,inactive: 126%
9,CCc1noc(-c2ccc(N3CCC(C)CC3)c([N+](=O)[O-])c2)n1,inactive: 93%
10,Cc1nn2c(=O)cc(COC(=O)c3ccc(NC(=O)CCc4ccccc4)cc3)nc2s1,inactive: 74%
11,CCC(Sc1nc2cc3c(cc2c(=O)n1CCCCCC(=O)NCc1ccc2c(c1)OCO2)OCO3)C(=O)NCCCOC (configuration not stated),inactive: 59%
12,COc1ccc(CCNC(=O)C(=O)NCC(c2ccco2)S(=O)(=O)c2cccs2)cc1 (configuration not stated),inactive: 124%
13,Cc1c(Cl)cccc1NC(=O)c1cc(-c2cccc(Cl)c2)on1,inactive: 90%
14,CC(C)C(=O)Nc1ccccc1C(=O)OCc1cc(=O)n2nc(C3CC3)sc2n1,inactive: 100%
15,COc1cc2c(C(=O)N3CCN(c4cccc(Cl)c4)CC3)cn(C)c(=O)c2cc1OC,inactive: 64%
16,O=C(CN1C(=O)c2cccnc2Oc2ccc(Cl)cc21)NCCCN1CCCCC1,inactive: 68%
17,O=C(Nc1cccc(Br)c1)Nc1nc2c(s1)CCCCCC2,inactive: 73%
18,COc1ccc(NC(=O)c2cnc(N3CCOCC3)c3ccccc23)cc1OC,inactive: 102%
19,Cc1cccc(-c2nc3cc(NC(=O)c4ccc(OCC(C)C)cc4)ccc3o2)c1,inactive: 117%
20,CCOC(=O)N1CCC(NC(=O)c2cnn(-c3ccc(C)cc3)c2-n2cccc2)CC1,inactive: 69%
21,O=C(Nc1ccc2nc(SCCOc3ccccc3)sc2c1)c1ccco1,inactive: 115%
22,Cc1cccn2c(=O)c3cc(C(=O)NC(C)C)n(C)c3nc12,inactive: 82%
23,COc1cccc(CCNC(=O)c2ccc(Cn3c(SCc4ccccc4)nc4cccnc43)cc2)c1,inactive: 87%

row,SMILES,survival
1,CCOc1ccc(NC(=O)NC(C)c2c(-n3cccc3)sc3c2CCN(CC)C3)cc1 (configuration not stated),inactive: 80%
2,CCOc1ccc(NC(=O)Cn2cc(C(=O)c3ccc(F)cc3)c(=O)c3cc4c(cc32)OCO4)cc1,inactive: 78%
3,CCOc1ccc2[nH]c(=S)c(C#N)cc2c1,inactive: 110%
4,COc1ccc(-c2nc3ccccc3n2Cc2ccc(C(C)C)cc2)cc1,active: -8%
5,N#C/C(=C\c1ccco1)C(=O)Nn1cnnc1,inactive: 101%
6,Cc1ccccc1NC(=O)C1CCN(C(=O)c2ccc(F)cc2)CC1,inactive: 82%
7,COc1cccc(C(=O)NCC(C)C)c1,inactive: 109%
8,Cc1ccc(C)c(Nc2nn3c(=O)c4ccc(C(=O)NCCC5=CCCCC5)cc4nc3s2)c1,inactive: 97%
9,Cc1ccc(N2CC(C(=O)NCCS(=O)(=O)N3CCN(c4ccccc4)CC3)CC2=O)cc1C (configuration not stated),inactive: 72%
10,CC(C)c1ccc(-c2noc(SCC(=O)N3CCN(c4ccc(F)cc4)CC3)n2)cc1,inactive: 73%
11,CCOc1ccc(OCc2ccc(C(=O)Nc3cc(OC)c(OC)c(OC)c3)o2)cc1,inactive: 74%
12,Cc1ccc(C)c(NC(=O)N(C)CCc2c(C)nn(C)c2C)c1,inactive: 56%
13,O=C(CCc1ccccc1)N(Cc1cccnc1)c1nc2c(F)cc(F)cc2s1,inactive: 131%
14,COc1ccc(CCNS(=O)(=O)c2cc(-c3cc(C)no3)ccc2OC)cc1OC,inactive: 75%
15,Cc1ccc(C(=O)Nc2nc3nc(C)cc(=O)n3[nH]2)cc1,inactive: 89%
16,CCN(CC)CCNc1ncnc2c1cnn2-c1cc(Cl)ccc1C,inactive: 98%
17,CCNc1nc(N)nc(Oc2ccc(OCC(=O)OC)nn2)n1,inactive: 106%
18,CCOc1ccc(-c2nc(CNC(=O)NC3CCCCC3)c(C)o2)cc1,inactive: 138%
19,CCOc1ccccc1C(=O)Nc1cccc2ccc(C)nc12,inactive: 49%
20,COc1cccc(CNC(=O)CSc2nc(=O)[nH]c3c2CCC3)c1,inactive: 77%
21,CCCN(C(=O)C(=O)Nc1ccc2nc3n(c(=O)c2c1)CCCCC3)c1ccc(OCC)cc1,inactive: 76%
22,COc1ccc(CCNc2nc3ccc(Cl)cc3n3cnnc23)cc1OC,inactive: 85%
23,Cc1cccc2nc(-c3ccc(N(C)C)cc3)c(Nc3ccc4c(c3)OCO4)n12,inactive: 90%

row,SMILES,survival
1,O=C(NCCc1csc(-c2ccc(Cl)cc2)n1)c1ccco1,inactive: 70%
2,CC(SC(=S)N1CCCCCC1)C(=O)O (configuration not stated),inactive: 108%
3,O=C1c2ccccc2C(=O)N1CC(O)CN1CCOCC1 (configuration not stated),inactive: 108%
4,COC(=O)c1c(NC(=O)Cc2cccs2)sc2c1CCCC2,inactive: 113%
5,COc1ccccc1-c1nnc(C2CCN(C(=O)c3cccc(Cl)c3)CC2)o1,inactive: 82%
6,CCOC(=O)c1ccccc1NC(=O)Cn1c(=O)n(CCC(=O)N2CCc3ccccc3C2)c(=O)c2ccccc21,inactive: 88%
7,Cc1cccc(C(c2sc3nc(-c4ccco4)nn3c2O)N2CCN(Cc3ccccc3)CC2)c1 (configuration not stated),inactive: 128%
8,COc1cc(NC(=O)c2cc(Cl)ccc2Cl)ccc1NC(=O)c1cc2ccccc2o1,inactive: 80%
9,COc1cc(C2CC(=O)c3c([nH]c(C(=O)OCc4ccc(C)cc4)c3C)C2)cc(OC)c1OC (configuration not stated),inactive: 82%
10,Cc1ccccc1NC(=O)Cn1c(=O)n(CCCCCC(=O)NCc2ccccc2Cl)c(=O)c2sccc21,inactive: 129%
11,COCCCNC(=O)c1[nH]c2ccccc2c1Sc1ccc(C)cc1,inactive: 81%
12,CN(C)c1ccc(CNC(=O)c2cnc3sc(N4CCCC4)nn3c2=O)cc1,inactive: 73%
13,Brc1ccc(-c2csc(NN=C3CCCC3)n2)cc1,inactive: 66%
14,CCS(=O)(=O)N1CCc2cc(C(=O)NCc3ccc(Cl)cc3)ccc21,inactive: 87%
15,CC(Sc1nnc(-c2ccccc2Br)o1)C(=O)Nc1cccc(Cl)c1 (configuration not stated),inactive: 101%
16,COc1ccc2c(c1)C(C)=CC(C)(C)N2C(=O)Cn1cnc2c(cnn2-c2ccccc2)c1=O,inactive: 101%
17,O=C(Cc1ccccc1)N(Cc1cccnc1)c1nc2ccc(Cl)cc2s1,inactive: 59%
18,CC(=O)c1cccc(NC(=O)CSc2nnc3ccc(-c4ccc(F)cc4)nn23)c1,inactive: 69%
19,CCCOc1ccc(C(=O)Nc2ccc3oc(-c4ccc5ccccc5c4)nc3c2)cc1,inactive: 132%
20,COc1ccc(NC(=O)c2ccc3c(SCC(=O)O)c4c(nc3c2)CCCC4)cc1OC,inactive: 126%
21,O=C(Nc1ccc(Br)cc1F)c1cc(S(=O)(=O)NC2CCCC2)ccc1F,inactive: 131%
22,CCOC(=O)c1cccc(-n2nnc3c(sc4nc(C)c(Br)c(C)c43)c2=O)c1,inactive: 87%
23,Cc1sc2ncn(CC(=O)Nc3ccc(F)cc3Cl)c(=O)c2c1S(=O)(=O)N1CCN(c2ncccn2)CC1,inactive: 82%

row,SMILES,survival
1,O=C(NC1CCCCC1)C1CCCN1C(=O)NCc1ccccc1 (configuration not stated),inactive: 100%
2,O=C(NCCc1ccccc1)c1cc(-c2ccc(Br)cc2)on1,inactive: 79%
3,CCOC(=O)c1c(C)oc2ncnc(N3CCN(c4ccc(C)cc4C)CC3)c12,inactive: 88%
4,Cc1cc(C)n(C(=O)c2ccoc2C)n1,inactive: 105%
5,CCn1c(CNC(=O)c2ccccc2F)nnc1SCC(=O)NC1CCCCC1C (configuration not stated),inactive: 95%
6,CCOC(=O)c1ccccc1NC(=O)Cn1c(=O)n(CCC(=O)NCc2ccccc2OC)c(=O)c2ccccc21,inactive: 94%
7,Cn1c(=O)c2c(nc(Oc3ccc(C#N)cc3)n2Cc2ccc(Cl)cc2Cl)n(C)c1=O,inactive: 118%
8,COc1cccc(-c2nnc3n(Cc4ccc(C)cc4)c(=O)c4ccccc4n23)c1O,inactive: 86%
9,CCCCN(Cc1cccs1)S(=O)(=O)c1cc(-c2cc(C)no2)ccc1C,inactive: 67%
10,CCN1CCN(c2csc3ccc(F)cc3c2=O)CC1,inactive: 71%
11,Cc1cccn2c(=O)cc(CSc3nnc(NC(=O)COc4ccc(F)cc4)s3)nc12,active: -4%
12,COc1ccc(-c2nc3scc(CCNS(=O)(=O)c4c(C)noc4C)n3n2)cc1OC,inactive: 123%
13,COc1cccc(CNC(=O)c2[nH]c3cc(C)ccc3c2Sc2ccccc2)c1,inactive: 87%
14,CCOC(=O)c1c(S(=O)(=O)NCC(=O)N2CCN(c3cccc(Cl)c3)CC2)c(C)n(C)c1C,inactive: 117%
15,Cc1cccc(NC(=O)CSc2nnc3scc(-c4ccccc4)n23)c1,inactive: 44%
16,COCCn1c(C)cc(C=C2C(=O)NC(=O)NC2=O)c1C,inactive: 100%
17,COc1ccccc1NC(=O)c1oc2ccccc2c1NC(=O)C(C)C,inactive: 86%
18,O=C1CCc2cc(S(=O)(=O)NCc3ccc(Cl)cc3)cc3c2N1CC3,inactive: 98%
19,COc1cccc(-c2nnc(-c3cc4cc(Cl)ccc4oc3=O)o2)c1,inactive: 132%
20,COc1cc(-c2noc(CSc3nc(-c4ccc(F)cc4)cc(=O)[nH]3)n2)cc(OC)c1OC,inactive: 69%
21,Cc1ccccc1CNC(=O)c1ccccc1NC(=O)c1nsc2ccccc12,inactive: 120%
22,CC(C)(C)c1ccc(CSc2nc3c(c(=O)[nH]2)CCCC3)cc1,inactive: 111%
23,O=C(Nc1ccc(Cl)c(C(F)(F)F)c1)C1CCCN(S(=O)(=O)c2cccc3cccnc23)C1 (configuration not stated),inactive: 65%
